Assay results reported in PubChem BioAssay AID485313 (National Center for Advancing Translational Sciences (NCATS), 2010).
The whole screen tested about 320,000 compounds, of which about 7,600 (2.4%) were called active. The inconclusive results got no clear call from the source; some entries with a clear call stand among them for comparison. Calls follow the shape of the dose curve; as a rule, active = well fitted activation curve with a large enough effect; inconclusive = small, poorly fitted or top-dose-only effect; inactive = no such curve, though single readings can be large or run the other way. Potencies of inconclusive entries are left out as doubtful fits.

Assay: qHTS Assay for NPC1 Promoter Activators; also: nearly all actives have a fitted effect of over 60% in size;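 as to activation: reporter is driven by a mutant NPC1 promoter; % of control where 0% means no effect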
Details: Huh7 NPC1 promoter luciferase reporter, 24 h; series mostly up to 9.22 µM; activation: at the top concentration
Summary of the method: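 Luminescence read-out of NPC1 promoter-driven luciferase in stably transfected Huh7 cells; compounds delivered in DMSO and left 24 h at 37C, 5% CO2, qHTS titration format.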
Potency is read from the fitted curve at half-maximal effect; tags tell the direction and shape of the fitted curve.

Structure (SMILES) | Potency | activation
Brc1ccc(-c2nnc(-c3ccccc3)o2)o1 | inconclusive [activator, partial curve] | –
N#C/C(=C\c1ccc2c(c1)OCCO2)C(=O)Nc1ccc(C(=O)O)cc1 | – | inactive: 21.4%
Cc1cc(=O)oc2cc(NC(=O)c3cccc(Br)c3)ccc12 | inconclusive [activator, full curve] | –
Cc1ccc(S(=O)(=O)N2CCN(C(=O)CCC(=O)NCc3cccc(C(F)(F)F)c3)CC2)cc1 | – | inactive: -3.02%
CCCCn1c(N)c(N(C)C(=O)c2ccc(-n3cccn3)cc2)c(=O)[nH]c1=O | – | inactive: -2.78%
Cc1c(-c2nc(-c3ccc(C(C)(C)C)cc3)no2)n(C)oc1=O | inconclusive [activator, full curve, poor fit] | –
Cc1c(C(=O)N(CCO)Cc2ccccc2)oc2c(F)cccc12 | inconclusive [activator, single point] | –
COc1ccccc1C(=O)N/C(N)=N/c1nc2ccccc2o1 | inconclusive [activator, partial curve] | –
O=C(Cc1cccs1)NNC(=S)NCc1ccc(Cl)cc1 | – | inactive: -1.32%
CCOc1ccccc1-n1c(SCC(=O)Nc2ccccc2C(=O)O)nc2ccccc2c1=O | inconclusive [activator, single point] | –
COc1ccc2oc(C(=O)Nc3ccccn3)c(C)c2c1 | inconclusive [activator, single point] | –
COC(=O)c1ccc(CN2C(=O)NC3(CCCCC3)C2=O)cc1 | inconclusive [activator, single point] | –
S=C(Nc1ccccc1Cl)N1CCC(c2ccccc2)C1 (stereo not drawn) | active: 3.55 µM | –
COc1ccccc1C(=O)N/N=C/c1cnc2ccccc2n1 | inconclusive [activator, single point] | –
Cc1cc(C)c2c(N)c(C(=O)Nc3nccs3)sc2n1 | inconclusive [activator, single point] | –
Cc1csc(NC(=O)c2cn3ccccc3n2)n1 | inconclusive [activator, partial curve] | –
CCOc1cccc2sc(NN)nc12 | – | inactive: -1.93%
CSc1nc(-c2ccccc2)cn1-c1ccc(NC(C)=O)cc1 | inconclusive [activator, partial curve] | –
CC(=O)C1(C)N(O)C(C)(C)C(c2cccs2)=[N+]1[O-] (stereo not drawn) | active: 0.1 µM | –
CC(C)c1cc(C(=O)NC2CCCCC2)no1 | inconclusive [activator, partial curve] | –
Cc1ccc(C2NC(=O)c3sc(=S)n(-c4ccccc4)c3N2)cc1 (stereo not drawn) | – | inactive: -5.51%
N#C/C(=C(/O)COC(=O)Cc1c[nH]c2ccccc12)c1nc2ccccc2[nH]1 | – | inactive: -1.45%
COc1cc(NCc2ccccc2O)c2ncccc2c1 | – | inactive: 6.99%
Cn1c(=O)c(C(=O)Nc2ccccn2)c(O)c2ccccc21 | inconclusive [activator, single point] | –

Structure (SMILES) | Potency | activation
c1ccc(-c2csc(Nc3cccnc3)n2)cc1 | inconclusive [activator, single point] | –
O=C(Nc1ccccc1)O[C@@H]1C[C@H]2CCC(=O)N3CC[C@@H](C1)[C@@H]23 | inconclusive [activator, partial curve] | –
N=c1scc(-c2ccccc2)n1/N=C/c1ccco1 | inconclusive [activator, single point] | –
Cc1ccccc1OCC(=O)Nc1ccc(N2CCN(C)CC2)c(Cl)c1 | inconclusive [activator, single point] | –
O=C1OC2(CCCC2)OC(=O)C1=Cc1c[nH]c2ccccc12 | active: 1.12 µM | –
Fc1cccc(Nc2ncnc3c2cnn3-c2ccccc2)c1 | inconclusive [activator, single point] | –
CCOc1cccc(C(=O)NC(=S)Nc2cccc(C)c2)c1 | inconclusive [activator, single point] | –
COc1cccc(-c2csc(NC(=O)C3CC3)n2)c1 | inconclusive [activator, partial curve] | –
O=c1c2cc(-c3ccccc3)sc2ncn1-n1cccc1 | active: 1.78 µM | –
O=C(NC(=S)Nc1ccc(F)cc1)c1ccc2c(c1)OCCO2 | active: 0.631 µM | –
O=C(OCc1ccc(C(=O)c2ccccc2)cc1)c1cccc(-c2nnc(-c3ccccc3)o2)c1 | inconclusive [activator, partial curve] | –
Brc1ccc(-c2noc(C3CCCCC3)n2)cc1 | inconclusive [activator, partial curve] | –
O=C(CCN1C(=O)c2ccccc2C1=O)Nc1ccc(-c2nc3ccccc3s2)cc1 | active: 1.26 µM | –
Cc1cccc(NC(=O)N2CCc3ccccc3C2)c1C | inconclusive [activator, partial curve] | –
Nc1nn2cc(-c3ccccc3)nc2c2ccccc12 | inconclusive [activator, single point] | –
COc1ccc(C2(C)NC(=O)N(CC(=O)Nc3ccc(-c4nc5ccc(C)cc5s4)cc3)C2=O)cc1 (stereo not drawn) | active: 3.98 µM | –
Cc1ccc(-c2cc(C(=O)Nc3ccc(S(=O)(=O)N4CC(C)OC(C)C4)cc3)[nH]n2)c(O)c1 (stereo not drawn) | – | inactive: -9.71%
Cc1sc2nc(-c3cccnc3)nc(Cl)c2c1-c1ccccc1 | inconclusive [activator, partial curve] | –
O=C(/C=C1\NC2(CCCC2)Cc2ccccc21)C(=O)N/N=C/c1ccc(O)c(O)c1 | – | inactive: -22.9%
CCCS(=O)(=O)Nc1ccc(N2CCCCC2)c(S(=O)(=O)Nc2ccccc2OC)c1 | – | inactive: -8.95%
O=C(NC1CCCCC1)c1ccc(S(=O)(=O)c2ccccc2Cl)c([N+](=O)[O-])c1 | – | inactive: -5.59%
Cc1cc(Cl)cc2sc(NC(=O)c3ccco3)nc12 | inconclusive [activator, single point] | –
COc1cccc(-c2ccc(=O)n(CC(=O)Nc3ccc(S(=O)(=O)NCC(C)C)cc3)n2)c1 | – | inactive: -5.88%
COc1cccc(/C=N/Nc2ccc(Cl)nn2)c1 | inconclusive [activator, single point] | –
